According to PubChem BioAssay AID1745853 (National Center for Advancing Translational Sciences (NCATS), 2022):
Some of the results follow. These are further read-outs of the screen, such as a control signal, another cell line or another target. No call is given for them.

Legend:
Assay in all cases: Primary Screen for Target Class Profiling of Small Molecule Inhibitors of Methyltransferases
[1] = target: Glycine N-methyltransferase (Homo sapiens) (UniProt Q14749); conditions: purified enzyme, MTase-Glo SAH luminescence; measured here: GNMT inhibition; at 40 µM; stronger effect = lower value
Procedure, shortened: (§1)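 Each enzyme was assayed with SAM and its substrate. SAH formation detected by MTase-Glo luminescence; single-point 40 uM screen[…].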

[2] = target: Guanidinoacetate N-methyltransferase (Homo sapiens) (UniProt Q14353); conditions: purified enzyme, MTase-Glo SAH luminescence; measured here: GAMT inhibition; at 40 µM; stronger effect = lower value
Procedure, shortened: as §1

[3] = target: Histamine N-methyltransferase (Homo sapiens) (UniProt P50135); conditions: purified enzyme, MTase-Glo SAH luminescence; measured here: HNMT inhibition; at 40 µM; stronger effect = lower value
Procedure, shortened: as §1

[4] = target: Nicotinamide N-methyltransferase (Homo sapiens) (UniProt P40261); conditions: purified enzyme, MTase-Glo SAH luminescence; measured here: NNMT inhibition; at 40 µM; stronger effect = lower value
Procedure, shortened: as §1

[5] = target: Phenylethanolamine N-methyltransferase (Homo sapiens) (UniProt P11086); conditions: purified enzyme, MTase-Glo SAH luminescence; measured here: PNMT inhibition; at 40 µM; stronger effect = lower value
Procedure, shortened: as §1
On the % scale 0 is the no-effect control and ±100 the full control effect.

Row | Structure (SMILES) | activity change, negative = inhibition [1] | activity change, negative = inhibition [2] | activity change, negative = inhibition [3] | activity change, negative = inhibition [4] | activity change, negative = inhibition [5]
1 | CC(C(=O)O)C1CCC2(C)C3C(=O)C=C4C(CCC(=O)C4(C)C)C3(C)CCC12C (stereo not given) | 0.288% | 1.18% | 8.14% | -13.7% | 5.37%
2 | CCCn1c(=O)c2ccc(C(=O)NC3CCCC3)cc2n2c(=O)n(CC(=O)c3ccc(OC)cc3)nc12 | 0.7% | -2.08% | 2.19% | -3.68% | -3.62%
3 | CN(C)c1ccc(CN2C(=O)c3cc(-c4ccccc4)nn3CC2(C)C(=O)NCc2ccccc2)cc1 (stereo not given) | -4.46% | 1.31% | -3.31% | -10.3% | -9.52%
4 | CC1CCC(NC(=O)C2(C)Cn3c(ccc3-c3ccccc3)C(=O)N2CC(C)c2ccccc2)CC1 (stereo not given) | 3.14% | 1.74% | -1.87% | -3.84% | -1.42%
5 | COc1ccccc1CNC(=O)C1(C)Cn2nc(-c3ccccc3)cc2C(=O)N1c1ccc(Cl)cc1C (stereo not given) | -0.699% | 5.24% | 1.19% | -6.06% | -4.78%
6 | CC(=O)[C@]1(O)Cc2c(O)c3c(c(O)c2[C@@H](O[C@H]2C[C@H](N)[C@H](O)[C@H](C)O2)C1)C(=O)c1ccccc1C3=O | -16.7% | 6.02% | -4.2% | -14.3% | -3.82%
7 | CC(O)/C=C/C1(O)C(C)C(O)C(O[C@@H]2O[C@H](CO)[C@@H](O)[C@H](O)[C@H]2O)CC1(C)C (stereo not given in full) | -1.29% | -1.6% | 2.49% | -12.6% | -7.96%
8 | COc1ccc(CN2C(=O)c3cc4sccc4n3CC2(C)C(=O)NC2CCC(C)CC2)cc1OC (stereo not given) | -3.71% | 4.87% | -4.17% | -72.7% | -0.916%
9 | COc1ccc(N2C(=O)c3cc4ccccc4n3CC2(C)C(=O)NCCC(C)C)cc1OC (stereo not given) | 7.51% | 0.906% | 10.8% | 1.04% | 6.1%
10 | C=C1CC/C=C(/C(=O)O)CCC2C1CC2(C)C (stereo not given) | 0% | 7.26% | 10% | -6.52% | 5.37%
11 | CN1C(=O)c2ccccc2-n2c(nc3ccccc3c2=O)[C@@]12O[C@H]2c1ccccc1 | 0% | 6% | 11.9% | -15.2% | 4.82%
12 | CC(C)[C@H]1CN(CCS(C)(=O)=O)C[C@@H]1NC(=O)c1ccco1 | -5.86% | -1.58% | 0.003% | -1.01% | 2.06%
13 | Cc1ccc(N2C(=O)c3ccc(-c4ccco4)n3CC2(C)C(=O)NCc2ccc(Cl)cc2)cc1C (stereo not given) | -3.5% | 0.922% | 9.39% | 9.05% | -1%
14 | CS(=O)(=O)N1CCc2c(-c3cnc(N)nc3)nc(N3CCOCC3)nc21 | 2.09% | 4.16% | 9% | -9.28% | 6.39%
15 | COc1ccc(N2C(=O)c3cc4sccc4n3CC2(C)C(=O)NC2CCCCCC2)cc1Cl (stereo not given) | -3.92% | 4.18% | 0.799% | 2.4% | -4.43%
16 | COc1ccc2cc3n(c2c1)CC(C)(C(=O)NC1CCCCC1)N(c1ccc2c(c1)OCO2)C3=O (stereo not given) | 2.03% | 0.777% | 2.21% | -6.66% | -0.481%
17 | COc1ccc(NC(=O)Cn2nc3nc(Nc4ccc(F)cc4)ccn3c2=O)cc1F | -11.4% | 1.09% | -3.18% | -4.19% | -4.34%
18 | Cc1ccc(Cn2c(=O)c3ccccc3n3c(=O)n(CC(=O)NCc4ccc(Cl)cc4)nc23)cc1 | 0.266% | 9.15% | 3.57% | 0.03% | 1.87%
19 | CCCn1c(=O)c2ccc(C(=O)NC(C)C)cc2n2c(SCC(=O)c3cc(C)ccc3C)nnc12 | 3.51% | -0.259% | 3.46% | 11.7% | 1.96%
20 | Cn1c(NC[C@@H](N)Cc2ccccc2)nc(-c2ccncc2)c(-c2ccc3ccccc3c2)c1=O | -3.62% | 7.64% | -13.6% | -19.1% | -1.64%
21 | CCCn1c(=O)c2ccc(Cl)cc2n2c(SCC(=O)NC3CCCCC3)nnc12 | 5% | 0% | 9% | 5.92% | 3.37%
22 | c1ccc(CCNc2nc3c(-c4ccccc4)nnn3c3ccccc23)cc1 | -5.02% | 1.56% | 1.4% | 8.87% | -1.44%
23 | COCCN1C(=O)c2nc3ccccc3n2CC1(C)C(=O)NC1CCCCC1 (stereo not given) | 9.04% | 1.26% | 11% | 12.2% | 3.93%
24 | CCOC(=O)c1cn(C2CN(C(=O)Cc3cccc(Cl)c3)C2)nn1 | -1.65% | -0.6% | -0.119% | -4.46% | -0.982%
25 | CCc1ccccc1N1C(=O)c2cc3ccccc3n2CC1(C)C(=O)NCCC(C)C (stereo not given) | 3.01% | 4.9% | 4.81% | 6.28% | 1.22%
26 | CCC(=O)N(C1CCOCC1)C1CCN(Cc2ccc(SC)cc2)CC1 | -2.41% | -1% | -0.82% | -9.16% | 4.48%
27 | COc1ccc(CN2C(=O)c3cc4ccccc4n3CC2(C)C(=O)NCc2ccccc2OC)cc1 (stereo not given) | -0.132% | 3.16% | 2.43% | 1.94% | -1.93%
28 | Cn1c(=O)c2ccc(C(=O)NC3CCCC3)cc2n2c(SCc3ccccc3F)nnc12 | -6.4% | 0.526% | 0.345% | -6.69% | -3.92%
29 | COc1cccc(NC(=O)CCc2nnc3n(Cc4ccccc4Cl)c(=O)c4ccccc4n23)c1 | -5.07% | 1.41% | 2.75% | 8.04% | -4.5%
